# Measurements published in the supplement of paper PMC7826260.
# The other results are listed elsewhere or left out. Each Rep nickase domain was tested in vitro on the same pool of single strands for 1 h at 37 °C with 3 µM enzyme; only the middle of the 90-letter strands is printed. Uncut reads are compared with the no-enzyme pool on a log2 scale; strong cutting gives strongly negative numbers. There is no active / inactive call. Reads are scaled to the total, so uncut sequences can rise above 0 when many others are cut.
# Legend:
# Experiment in all cases: uncleaved DNA left, log2 of reads against the no-enzyme library (log2 ratio); higher = less cleavage (more negative = more Rep cleavage of the k-mer); sequences stand for … in CTCGTCCG…ACCGGAGA
# [1] = system: T1, Rep nickase domain of Muscovy duck circovirus
# T1 sequence (residues 1-111 of Rep, tag left off): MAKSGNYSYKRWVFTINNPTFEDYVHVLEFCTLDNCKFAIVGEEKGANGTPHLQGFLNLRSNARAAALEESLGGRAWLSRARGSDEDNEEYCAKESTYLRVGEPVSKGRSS
# Procedure: (§1)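 A pool of 90-nt single-stranded DNAs with seven random bases just before the constant AC of the nick site (name = the seven bases) was cut by 3 µM recombinant His6-SUMO-tagged Rep nickase domain (300 nM DNA, 50 mM HEPES pH 8.0, 50 mM NaCl, 1 mM MnCl2, 1 h, 37 °C, three replicates). Uncut DNA was amplified and sequenced.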
# [2] = system: T2, Rep nickase domain of banana bunchy top virus
# T2 sequence (residues 1-94 of Rep, tag left off): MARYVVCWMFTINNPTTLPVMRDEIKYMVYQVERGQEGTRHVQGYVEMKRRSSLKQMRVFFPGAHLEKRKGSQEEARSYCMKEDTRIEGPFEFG
# Procedure: as §1
# [3] = system: T3, Rep nickase domain of cabbage leaf curl virus
# T3 sequence (residues 1-116 of Rep, tag left off): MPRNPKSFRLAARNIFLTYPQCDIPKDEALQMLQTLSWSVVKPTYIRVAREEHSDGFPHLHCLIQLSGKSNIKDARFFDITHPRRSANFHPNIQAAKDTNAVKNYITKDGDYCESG
# Procedure: as §1
# [4] = system: T4, Rep nickase domain of chickpea chlorotic dwarf virus
# T4 sequence (residues 1-124 of Rep, tag left off): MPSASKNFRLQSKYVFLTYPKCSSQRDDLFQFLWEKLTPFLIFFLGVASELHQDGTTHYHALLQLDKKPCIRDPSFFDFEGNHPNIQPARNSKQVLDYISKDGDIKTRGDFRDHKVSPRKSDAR
# Procedure: as §1
# [5] = system: T5, Rep nickase domain of faba bean necrotic yellows virus
# T5 sequence (residues 1-98 of Rep, tag left off): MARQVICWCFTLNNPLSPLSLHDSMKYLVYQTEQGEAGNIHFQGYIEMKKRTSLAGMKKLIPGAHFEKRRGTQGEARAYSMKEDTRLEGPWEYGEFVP
# Procedure: as §1
# [6] = system: T6, Rep nickase domain of maize striate mosaic virus
# T6 sequence (residues 1-117 of Rep, tag left off): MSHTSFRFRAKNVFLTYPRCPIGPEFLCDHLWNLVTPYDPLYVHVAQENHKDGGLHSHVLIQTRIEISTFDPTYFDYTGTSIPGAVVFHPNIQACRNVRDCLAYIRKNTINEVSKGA
# Procedure: as §1
# [7] = system: T7, Rep nickase domain of porcine circovirus 2
# T7 sequence (residues 2-116 of Rep, tag left off): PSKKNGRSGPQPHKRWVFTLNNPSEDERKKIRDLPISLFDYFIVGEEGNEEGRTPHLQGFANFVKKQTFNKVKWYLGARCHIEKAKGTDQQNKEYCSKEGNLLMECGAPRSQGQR
# Procedure: as §1
# [8] = system: T8, Rep nickase domain of tomato golden mosaic virus
# T8 sequence (residues 1-124 of Rep, tag left off): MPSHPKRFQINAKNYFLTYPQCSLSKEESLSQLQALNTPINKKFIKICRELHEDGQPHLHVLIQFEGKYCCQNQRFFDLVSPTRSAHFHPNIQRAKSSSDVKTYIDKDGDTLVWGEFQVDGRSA
# Procedure: as §1
# [9] = system: T9, Rep nickase domain of tomato yellow leaf curl virus
# T9 sequence (residues 1-136 of Rep, tag left off): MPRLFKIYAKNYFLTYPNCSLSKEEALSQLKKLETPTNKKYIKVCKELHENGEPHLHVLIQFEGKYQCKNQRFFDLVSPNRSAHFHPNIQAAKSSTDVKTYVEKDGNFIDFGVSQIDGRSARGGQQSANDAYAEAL
# Procedure: as §1
# [10] = system: T10, Rep nickase domain of wheat dwarf virus
# T10 sequence (residues 1-137 of Rep, tag left off): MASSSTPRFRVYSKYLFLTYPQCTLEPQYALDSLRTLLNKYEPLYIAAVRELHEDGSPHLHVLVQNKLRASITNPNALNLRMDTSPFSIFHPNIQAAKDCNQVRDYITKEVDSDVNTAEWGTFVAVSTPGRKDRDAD
# Procedure: as §1
Sequence,uncleaved DNA left (log2) [1],uncleaved DNA left (log2) [2],uncleaved DNA left (log2) [3],uncleaved DNA left (log2) [4],uncleaved DNA left (log2) [5],uncleaved DNA left (log2) [6],uncleaved DNA left (log2) [7],uncleaved DNA left (log2) [8],uncleaved DNA left (log2) [9],uncleaved DNA left (log2) [10]
TGTGCCT,-0.027,-0.129,-0.00972,-0.645,-0.00255,-0.212,-0.148,-0.239,0.00333,0.0157
CAACAAT,0.171,0.153,-0.492,-2.14,0.0967,-0.448,-0.18,0.158,0.171,0.0258
CTCCTAG,0.165,0.0521,-0.703,-0.344,0.139,-0.843,0.122,-0.00584,0.189,0.0442
GCGCCTA,-0.0472,-0.00854,0.00238,-0.0225,-0.07,0.415,-0.0291,-0.021,-0.0955,-0.0466
ATGCCAA,-0.0257,0.0176,-0.245,-0.0909,-0.0445,-0.657,-0.0507,-0.000351,-0.078,0.0305
TGCTGCG,-0.00401,-0.0489,-0.337,0.898,-0.00821,0.408,0.0751,-0.162,-0.325,-0.204
GGGCAAA,0.121,0.132,0.94,2.04,0.0655,2.27,0.24,0.0842,-0.0187,0.237
ATATCCC,-0.118,-0.0659,-0.0638,-0.102,-0.187,-0.361,-0.0956,-0.0789,-0.137,-0.0584
CCGCCGC,0.0862,0.0397,-0.29,-0.598,0.0297,-0.539,0.159,-0.0381,-0.0347,-0.233
CAGCTCC,0.0327,-0.0755,-0.213,-0.0995,-0.0138,0.855,-0.0579,-0.0512,0.0128,0.0345
CAGGTTT,-0.0164,-0.128,0.119,-0.443,0.0534,1.52,-2.44,0.0976,-0.118,0.00815
CTTCTTG,-0.00843,-0.0389,-0.697,-2.07,-0.0165,-1.25,0.102,-0.0487,0.166,-0.0502
GGCGACC,-0.0362,0.0619,0.2,0.951,-0.00156,0.934,0.0633,0.005,0.0591,0.0543
CAAAAAT,-0.0118,-0.0499,-2.19,-2.96,0.0371,-0.924,-0.561,-0.156,-0.196,-0.742
GCGTTTT,-1.5,-0.387,0.0116,-1.06,-0.327,0.0158,-2.8,-0.159,-0.0368,-0.0993
TATAAAG,0.103,0.000929,-0.78,-0.921,0.17,-1.15,0.129,0.00723,0.000657,0.011
CCTATCT,0.0159,-0.0172,-0.201,-2.16,0.033,-0.722,-0.549,0.0197,-0.0239,0.0345
GTGGTCC,-0.00126,-0.119,0.316,0.808,0.00262,1.85,0.0667,0.0649,-0.0771,-0.0527
CACCCCT,-0.21,-0.195,-1.36,-2.93,-0.0617,-1.14,-1.12,-0.339,-0.145,-0.329
TTCCCTG,-0.00896,-0.101,-0.129,-0.337,-0.106,-0.108,-0.205,-0.13,-0.152,-0.0845

Sequence,uncleaved DNA left (log2) [1],uncleaved DNA left (log2) [2],uncleaved DNA left (log2) [3],uncleaved DNA left (log2) [4],uncleaved DNA left (log2) [5],uncleaved DNA left (log2) [6],uncleaved DNA left (log2) [7],uncleaved DNA left (log2) [8],uncleaved DNA left (log2) [9],uncleaved DNA left (log2) [10]
CGGGTAA,-0.0132,0.0227,0.473,0.829,-0.0597,1.36,0.0993,-0.0396,-0.0411,-0.023
CTCCGGG,-0.0708,0.0407,0.392,0.563,-0.0425,0.0672,0.118,0.0403,0.125,0.065
CCCGAAT,0.0756,0.0388,0.0926,-0.201,-0.147,-0.116,-0.262,0.167,-0.0627,-0.182
CGACAGG,0.00106,0.219,0.0251,0.693,-0.0172,1.19,0.136,0.116,0.0108,0.127
TCATTTT,-3.65,-0.257,-3.03,-3.26,-0.0547,-1.46,-3.27,-0.473,-0.000551,-0.717
TTCGAGT,-0.0494,-0.0951,0.0257,-0.207,0.0542,-0.52,-0.056,-0.0851,-0.0476,-0.0619
GACGCCT,-0.0183,-0.1,-0.108,-1.8,-0.133,0.227,-0.177,-0.0254,-0.0137,-0.132
ACTTCGT,-0.0181,-0.0474,-0.809,-0.89,0.0456,-1.14,-0.0529,0.0812,-0.0213,-0.0136
ATGACAC,-0.0162,-0.08,0.102,0.556,-0.106,-0.00657,-0.073,-0.18,0.0369,0.108
TTAGGCA,0.164,0.117,0.25,0.545,0.116,0.335,0.148,0.127,0.111,0.115
CAGGTCG,0.0794,0.0532,-0.751,-0.485,0.103,-1.07,-0.0108,-0.118,0.0959,-0.02
CTAGAGT,0.0891,-0.231,-0.237,-0.379,0.0713,-0.662,-0.187,-0.165,-0.158,-0.239
ATTCGGC,-0.116,-0.106,-0.197,-0.294,-0.0363,-1.01,-0.00521,-0.0232,-0.124,-0.096
CCACTCG,-0.12,0.0154,-0.855,-0.203,-0.0483,-0.977,0.103,0.0729,-0.00827,-0.101
TAAGCCG,0.0354,-0.0532,-0.768,-0.502,0.0609,-1.17,0.17,-0.103,0.00572,-0.0472
ACACGTG,0.0589,-0.00607,-0.596,-0.0401,0.137,-0.731,0.159,0.0904,0.0611,0.0779
GTATCGT,-0.00649,0.104,0.229,0.605,-0.028,0.972,-0.0278,0.197,0.0441,0.119
AAGGCGC,0.0557,-0.0355,-0.681,-0.506,0.0172,-0.796,0.207,0.0645,0.0937,-0.105
ATAGGGG,0.0739,0.0838,0.322,0.777,0.191,0.352,0.359,0.142,-0.0144,-0.000122
CCATTCT,-1.32,0.0411,-0.493,-1.97,0.044,-1.15,-1.11,-0.0785,0.0731,-0.0895

Sequence,uncleaved DNA left (log2) [1],uncleaved DNA left (log2) [2],uncleaved DNA left (log2) [3],uncleaved DNA left (log2) [4],uncleaved DNA left (log2) [5],uncleaved DNA left (log2) [6],uncleaved DNA left (log2) [7],uncleaved DNA left (log2) [8],uncleaved DNA left (log2) [9],uncleaved DNA left (log2) [10]
GACGGAG,-0.0207,-0.0373,-0.125,0.0805,-0.116,-0.564,0.0871,-0.0456,-0.0665,-0.0318
GGCCAAC,-0.0414,-0.0105,0.454,1.21,-0.0402,1.73,0.139,0.0593,0.0233,0.106
CCCCGAG,-0.00256,-0.0811,0.656,1.33,-0.0911,0.352,0.0946,0.0121,-0.0449,-0.0106
AAGGGGT,0.157,0.00135,0.276,1.47,0.109,1.76,0.257,0.077,-0.0823,0.0169
CGGGAAG,-0.00829,-0.0566,-0.168,0.314,-0.169,-0.181,0.225,-0.131,0.0121,0.0249
AGGTTTC,0.0465,-0.0668,0.127,0.143,-0.0284,0.181,0.0175,-0.0502,-0.025,0.00189
CTCAAAG,0.101,0.0517,-0.829,-0.449,0.0317,-1.2,0.165,-0.0938,0.252,-0.114
TATTGAC,0.0105,0.00895,-0.198,-0.433,-0.0396,-0.874,0.174,-0.0344,0.00491,0.0299
TTTGATC,0.121,-0.0763,0.173,-0.215,-0.0253,-0.578,-0.01,-0.0831,0.00523,0.0365
GTAACTG,-0.0083,-0.00315,-0.035,0.148,-0.0792,1.4,0.045,0.0462,-0.0595,0.0414
CACTCCA,-0.143,-0.177,-0.158,-2.24,0.0123,-0.0288,-2,-0.05,-0.0812,-0.108
TAACACA,0.0765,0.16,-1.16,-2.81,0.0217,-0.345,0.00239,0.0756,0.0735,-0.246
CTTTAGA,0.0103,-0.0711,-0.0483,-0.403,-0.0903,-1.01,0.0118,-0.00965,-0.0113,-0.0355
GAGCCAT,-0.0143,0.115,0.7,1.51,-0.0778,1.9,0.00507,0.00317,-0.0487,0.192
ACAACTC,-0.142,-0.0384,-0.261,-0.677,-0.0974,-0.772,-0.027,-0.0831,-0.163,-0.0201
TTGGAAT,0.0459,0.155,0.299,1.05,0.0842,1.4,0.138,-0.0228,0.0275,0.0253
AAATACC,-0.0672,-0.137,-2.77,-2.8,-0.127,-0.959,-0.827,-0.44,-0.14,-0.346
CTCCGAC,-0.077,-0.111,0.000143,0.0953,-0.053,-0.471,-0.0459,-0.187,-0.148,-0.051
